Results on 40 compounds are retold here after PubChem BioAssay (NCATS).

This is one part of the list. Shown are side measurements of this screen, not its main read-out; they come without a call. Compounds called inactive in the main read-out are mostly missing here.

A short description of the assay: qHTS Assay for Lipid Storage Modulators (AID 1519). The conditions noted are these: Drosophila S3 cells, BODIPY lipid droplet/cell ratio, laser cytometry; measured here: lipid channel max response; cells loaded with oleic acid. The procedure, abridged:
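Cells seeded at 5,000 per well were treated with compounds over a concentration series and loaded with oleic acid (400 uM, as added). Lipid droplet fluorescence (488 nm excitation, 500-530 nm channel) was read by laser-scanning cytometry and normalized to 20 uM Triacsin C.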
A general note: Quantitative high-throughput screening tests each substance at several concentrations.
Take `NS(=O)(=O)c1cc2c(cc1Cl)NC(C(Cl)Cl)NS2(=O)=O` (stereo not given): the max response amounted to 31.9%.
The figure for `CC(=O)OC(C)(C)C1Cc2cc3ccc(=O)oc3cc2O1` (stereo not given) is 19%.
Consider `CC(=O)N1CCC2(CC1)CCN(C(c1ccccc1)c1ccccc1)CC2`, for which the max response worked out at 37.5%.
As to `COc1cc2nc(N3CCN(C(=O)[C@H]4CCCO4)CC3)nc(N)c2cc1OC`, the max response was determined as 77.6%.
Take `CN(C)Cc1ccccc1-c1cncnc1Nc1ccc(F)cc1`: the max response is 32.9%.
The figure for `CC1OC(OCC2OC(Oc3c(-c4ccc(OCCO)c(OCCO)c4)oc4cc(OCCO)cc(O)c4c3=O)C(O)C(O)C2O)[C@@H](O)C(O)C1O` (stereo not given in full) is 34%.
Regarding `O=C(c1csnn1)N1CCC2(CCN(Cc3nccs3)CC2)CC1`, the max response is 34.3%.
With `COCCn1c(=O)c(CCc2ccccc2)nc2cnc(OCc3ccccc3)nc21` the figure was 14.5%.
With `OC1C=C2CCN3Cc4cc5c(cc4C(C1O)C23)OCO5` (stereo not given) the figure was 36%; with `C=CCCCCCCCCCCCC(O)CC(O)COC(C)=O` (stereo not given) (tested in a mixture with another compound), 31.4%; with `CN(C)CCC(c1ccccc1)c1ccccn1` (stereo not given), 4.75%.
The figure for `C[C@H](N=C(NC#N)Nc1ccncc1)C(C)(C)C` is 151%.
For the compound `Oc1ccc2c(c1)OCC1c3cc4c(cc3OC21)OCO4` (stereo not given), the max response amounted to 32.4%.
On to `Cn1c(=O)[nH]c(=O)c2[nH]cnc21`, for which the max response worked out at 38.7%.
Take `OCCN1CC(O)C(O)C(O)C1CO` (stereo not given): the max response worked out at 35.5%.
`COc1ccc(-n2c(=O)c(C)nc3cncnc32)cc1`: the max response turned out to be 30.2%.
With `Cc1noc(C)c1-c1cncnc1NC1CC1` the figure was 36.9%; with `CN(C)C(=O)c1ccc(-c2cncnc2NCCN2CCOCC2)cc1`, 38.4%.
The figure for `CNc1ncnc2ccc(-c3ccc4c(c3)OCO4)cc12` is 25%.
The figure for `Cn1c(=O)c(-c2ccc(Cl)cc2)nc2cncnc21` is 27.8%.
Turning to `c1ccc(Nc2ncnc3ccc(-c4ccoc4)cc23)cc1`, the max response was determined as 19.2%.
Turning to `COc1ccccc1CCn1c(=O)c(-c2cccs2)nc2cncnc21`, the max response was found to be 7.78%.
The figure for `CC(=O)N1CCC2(CC1)CCN(c1ccccc1)CC2` is 36.8%; for `COc1ncc2nc(-c3ccc(Cl)cc3)c(=O)n(C)c2n1` it is 24.4%.
With `COc1ccc(-c2cc(=O)c3ccccc3o2)cc1OC`, the max response was 7.81%.
The figure for `CCCN1CC(CSC)C[C@H]2c3cccc4[nH]cc(c34)C[C@H]21` (stereo not given in full) is 33.5%; for `N#CCCn1c(=O)c(-c2ccc(Cl)cc2)nc2cnc(N3CCNCC3)nc21` it is 29.4%.
The figure for `CC(C)CN1CCCC2(CCN(C(=O)c3ccco3)CC2)C1` is 31%.
With `O=c1c(O)c(-c2ccc(O)c(O)c2)oc2ccccc12` the figure was -16.9%; with `COCCn1c(=O)c(-c2cccs2)nc2cnc(Oc3cccc(Cl)c3)nc21`, -26.8%; with `COc1cccc(Cn2c(=O)c(-c3ccc(F)c(F)c3)nc3cncnc32)c1`, 39.5%.
`CN1CCN(c2ncc3nc(-c4cn(C)c5ccccc45)c(=O)n(C[C@H]4CCCO4)c3n2)CC1`: the max response came to 34.1%.
Take `O[C@@H]1[C@@H]2c3cc4c(cc3CN3CCC(=C[C@@H]1O)[C@H]23)OCO4`: the max response is -33.6%.
As for `COC(=O)N1CCC2(CC1)CCN(c1ccncc1)CC2`, the max response is 36.3%.
Regarding `CC(=O)OC1CC[C@@]2(C)C3CC[C@@]4(C)C(CC5O[C@@]6(CCC(C)CO6)C(C)C54)C3CC[C@@H]2C1` (stereo not given in full), the max response came out at 33.2%.
The figure for `COc1ncc2nc(-c3cc(F)cc(F)c3)c(=O)n(C3CC3)c2n1` is 28.2%; for `CC1(C)C=Cc2c(cc3occ(-c4ccc5c(c4)OCO5)c(=O)c3c2O)O1` it is 45%.
With `COCCn1c(=O)c(-c2cccc(C#N)c2)nc2cnc(N3CCOCC3)nc21` the figure was 29.6%; with `NC(=O)c1ccccc1-c1nc(-n2ccnc2)c2ccccc2n1`, 31.1%; with `N#Cc1ccc(CN2CCC3(CC2)CCN(C(=O)c2cnccn2)CC3)cc1`, 20.7%.
